This note sets out measurements from US20240049713A1, “METHOD FOR CONTROLLING HERBICIDE-RESISTANT WEEDS” (SUMITOMO CHEMICAL COMPANY, LIMITED, priority 2020, published 2024).

Assay [1] deals with PPO inhibitor-resistant weeds. In words: plastic pot tests as Examples 1 to 72 and variants (Examples 73 to 3456). The method, then: (§1) In a plastic pot, palmer amaranth (Amaranthus palmeri) having an Arg128Met mutation in PPO2 is seeded. On the same day, compound X is applied to the surface of soil so that the application rate of the compound X is 10, 20, 40 or 80 g/ha and the spray volume is 200 L/ha. The plastic pot is then placed in a greenhouse, and at 7 days after the application, soybeans are seeded, and further at 14 days after seeding the soybeans, the effect on the weeds and crop injuries on the soybeans are investigated.
(§2) In a plastic pot, palmer amaranth (Amaranthus palmeri) having an Arg128Met mutation in PPO2 and soybeans are seeded. On the same day, compound X is applied to the surface of soil so that the application rate of the compound X is 10, 20, 40 or 80 g/ha and the spray volume is 200 L/ha. The soybeans are then cultivated in a greenhouse, and at 21 days after seeding, the effect on the weeds and crop injuries on the soybeans are investigated.
(§3) In a plastic pot, palmer amaranth (Amaranthus palmeri) having an Arg128Met mutation in PPO2 and soybeans are seeded. The soybeans are then cultivated in a greenhouse, and at 21 days after seeding, compound X is foliar-treated so that the application rate of the compound X is 10, 20, 40 or 80 g/ha and the spray liquid amount is 200 L/ha. Further, the soybeans are cultivated in the greenhouse, and at 14 days after the application of compound X, the effect on the weeds and crop injuries on the soybeans are investigated.
In each application of Examples 1 to 216, in addition to the compound X, the compound Y or the compound Z, RoundupPowerMax (glyphosate-potassium salt 660 g/L) is further added so that the application rate is 32 fluid ounce/acre (1,543 g/ha as glyphosate-potassium salt). Then the application procedure is performed in the same manner.
In each application of Examples 1 to 216, in addition to the compound X, the compound Y or the compound Z, XtendiMax (dicamba-diglycolamine salt 480 g/L) is further added so that the application rate is 1 pint/acre (560 g/ha as dicamba). Then the application procedure is performed in the same manner.
In each application of Examples 1 to 216, in addition to the compound X, the compound Y or the compound Z, RoundupPowerMax and XtendiMax are further added so that the application rate of RoundupPowerMax is 32 fluid ounce/acre and the application rate of XtendiMax is 1 pint/acre, respectively. Then the application procedure is performed in the same manner.
The application is performed in the same manner, except that soybean of Examples 1 to 864 is replaced by corn or cotton.
Then the application procedure is performed in the same manner.

In assay [2] the test system is palmer amaranth (Amaranthus palmeri) containing an Arg128gly mutation in PPO2. The settings on record: rating 0 to 100, sprayed at plant height 20 cm, 200 L/ha, 1% (w/v) Agri-Dex, evaluated after 14 days in greenhouse. The procedure: (§4) The compound X (55 mg) produced in Reference Production Example 1, Emulsogen TS290 (polyoxyethylene tristyrylphenyl ether, manufactured by Clariant) (76.5 mg), and Phenylsulfonat CAL (mixture of 70% calcium dodecylbenzene sulfonate and 30% isobutanol, manufactured by Clariant) (76.5 mg) were dissolved in Solvesso 200ND (aromatic hydrocarbon, manufactured by Exxon Mobile) to make a total volume of 1 ml, thus preparing a emulsifiable concentrate (hereinafter referred to as Formulation X).
(§5) Soil was filled in a plastic pot, and palmer amaranth (Amaranthus palmeri) having a Gly210 deficiency in PPO2, palmer amaranth (Amaranthus palmeri) containing an Arg128gly mutation in PPO2, and palmer amaranth (Amaranthus palmeri) having a Gly399Ala mutation in PPO2 were seeded, and then grown in a greenhouse. When the plant height reached 20 cm, spray liquid obtained by diluting a predetermined amount of the formulation X with water containing a 1% (w/v) spreader (Agri-Dex) was evenly sprayed from above the pot using a sprayer such that the spray volume was 200 L/ha and the application rate of the compound X was 20 or 40 g/ha. The plants were then grown for 14 days in the greenhouse, and the herbicidal effect was evaluated. As a control, the formulation X was replaced by a tiafenacil microemulsion Terrador (manufactured by Dongbu Farm Hannong Co., Ltd.), and the application procedure was carried out in the same manner.

Assay [3] deals with palmer amaranth (Amaranthus palmeri) having a Gly210 deficiency in PPO2. The conditions noted are these: rating 0 to 100, sprayed at plant height 20 cm, 200 L/ha, 1% (w/v) Agri-Dex, evaluated after 14 days in greenhouse. The procedure:
as §4, §5

In assay [4] the test system is palmer amaranth (Amaranthus palmeri) having a Gly399Ala mutation in PPO2. The settings on record: rating 0 to 100, sprayed at plant height 20 cm, 200 L/ha, 1% (w/v) Agri-Dex, evaluated after 14 days in greenhouse. The procedure: as §4, §5
Assay [5] has as its system palmer amaranth (Amaranthus palmeri) having an Arg128Met mutation in PPO2. The settings on record: 200 L/ha. The procedure: as §1, §2, §3
Setting [6] is: as Examples 1 to 216, RoundupPowerMax further added at 32 fluid ounce/acre (1,543 g/ha as glyphosate-potassium salt).
Setting [7] is: as Examples 1 to 216, XtendiMax further added at 1 pint/acre (560 g/ha as dicamba).

Read-outs that look alike come from different tables or passages of the source.

In the case of `Cn1c(C(F)(F)F)cc(=O)n(-c2cc(OC3(C(=O)OCC(=O)O)CC3)c(Cl)cc2F)c1=O` [Compound Z], the “effect on the weeds” value in assay [1] (setting [6]) and in assay [1] (setting [7]) was “effective control effect” each time.
With `COC(=O)COC(=O)C1(Oc2cc(-n3c(=O)cc(C(F)(F)F)n(C)c3=O)c(F)cc2Cl)CC1` [Compound Y], the “effect on the weeds” value in assay [1] (setting [6]) and in assay [1] (setting [7]) was “effective control effect” each time.
On to `COC(=O)CCNC(=O)C(C)Sc1cc(-n2c(=O)cc(C(F)(F)F)n(C)c2=O)c(F)cc1Cl` (centres unmarked) [Tiafenacil, tiafenacil, reference compound], for which the herbicidal effect in assay [2] (20 g/ha) is reported as 30; in assay [2] (40 g/ha), 40; in assay [3] (20 g/ha) it was 20; in assay [3] (40 g/ha), 30; in assay [4] (20 g/ha), 40; in assay [4] (40 g/ha), 40.
`CCOC(=O)COC(=O)C1(Oc2cc(-n3c(=O)cc(C(F)(F)F)n(C)c3=O)c(F)cc2Cl)CC1` [Compound X]: the herbicidal effect worked out at 95 in assay [2] (40 g/ha); 95 in assay [3] (20 g/ha); 98 in assay [3] (40 g/ha); 99 in assay [4] (20 g/ha); 98 in assay [4] (40 g/ha). In addition, the “effect on the weeds” value is on record as “effective control effect” in assay [5] (foliar treatment 21 days after seeding, 10, 20, 40 or 80 g/ha, investigated 14 days after application); “effective control effect” in assay [5] (soil surface application on day of weed seeding, 10, 20, 40 or 80 g/ha, soybeans seeded 7 days after application, investigated 14 days after seeding the soybeans); “effective control effect” in assay [5] (weed and soybeans seeded, soil surface application same day, 10, 20, 40 or 80 g/ha, investigated 21 days after seeding); “effective control effect” in assay [1] (setting [6]); “effective control effect” in assay [1] (setting [7]).
